Variants at the background level are over-represented here.
B1: TPR 5TU (parent)
chain: GGAUCUUCUCGAUCUAACAAAAAAGACAAAUCUGCCACAAAGCUUGAGAGCAUCUUCGGAUGCAGAGGCGGCAGCCUUCGGUGGCGCGAUAGCGCCAACGUUCUCAACUAUGACACGCAAAACGCGUGCUCCGUUGAAUGGAGUUUAUCAUG

Variants of: B1
Experiment: polymerase ribozyme fitness, log enrichment relative to wild type (log ratio); higher = more active; in vitro selection for triplet polymerase activity
How it was run: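 In triplicate, a single round of in vitro selection was run on each mutant library, PCR-built and transcribed, covering one subunit of a heterodimeric triplet polymerase ribozyme. Frozen incubation at −7 °C followed annealing with a biotinylated primer, partner subunit and triplets, and extended constructs were then gel-excised, streptavidin-captured and taken through RT-PCR. Fitness is the logarithm of genotype enrichment over wild-type enrichment, from inverse-variance-weighted replicate averages of Illumina-sequenced inputs and outputs. […] only genotypes with ≥10 input reads and ≥1 read per output were kept.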

Going from G46C A52C C87G C99G to G46C A52G A137G, the “polymerase ribozyme fitness (log ratio)” value rises from ≤ -4.2 to -2.44.

G46C A52G C63A G71A A110G A113U and G46C A52G G74A C76A A91C C114A A122U cannot be ordered by “polymerase ribozyme fitness (log ratio)” value: ≤ -4.2 for the first, ≤ -4.2 for the second.

G46C A52G G92A C114A A142U and G46C A64C G65C G83A G128U cannot be ordered by “polymerase ribozyme fitness (log ratio)” value: ≤ -4.2 for the first, ≤ -4.2 for the second.

G46C A64C G83U C108U A113U C116U C149A and G46C A64G A91C cannot be ordered by “polymerase ribozyme fitness (log ratio)” value: ≤ -4.2 for the first, ≤ -4.2 for the second.

G46C A73C C93G A107U A110U G140A and G46C A91G C114U C131U A137G C149A cannot be ordered by “polymerase ribozyme fitness (log ratio)” value: ≤ -4.2 for the first, ≤ -4.2 for the second.

G46C A107G G140C and G46C A110G cannot be ordered by “polymerase ribozyme fitness (log ratio)” value: ≤ -4.2 for the first, ≤ -4.2 for the second.

G46C A110U U135A and G46C C54A A91G cannot be ordered by “polymerase ribozyme fitness (log ratio)” value: ≤ -4.2 for the first, ≤ -4.2 for the second.

G46C C54A U61A C63U G70A G84A C93U G100A C116G and G46C C54U G94A C99A A142U U151C cannot be ordered by “polymerase ribozyme fitness (log ratio)” value: ≤ -4.2 for the first, ≤ -4.2 for the second.

G46C C72A C87A U127C G143A and G46C C75G G88A C114U cannot be ordered by “polymerase ribozyme fitness (log ratio)” value: ≤ -4.2 for the first, ≤ -4.2 for the second.

G46C C76U and G46C C76U U102C C116U A137C cannot be ordered by “polymerase ribozyme fitness (log ratio)” value: ≤ -4.2 for the first, ≤ -4.2 for the second.

G46C C87A C125U G140U and G46C C87A G100C A106C C116A U139C cannot be ordered by “polymerase ribozyme fitness (log ratio)” value: ≤ -4.2 for the first, ≤ -4.2 for the second.

Compared with G46C C87G G140C, G46C C93U is higher in “polymerase ribozyme fitness (log ratio)” value: ≤ -4.2 for the first, -2.47 for the second.

Going from G46C C93U C96U to G46C C149U, the “polymerase ribozyme fitness (log ratio)” value rises from -2.86 to -2.58.

G46C G48A C95U C114G and G46C G50A G67C C69A G100C G128U U151A cannot be ordered by “polymerase ribozyme fitness (log ratio)” value: ≤ -4.2 for the first, ≤ -4.2 for the second.

G46C G50A G81U G92A C125A and G46C G50A U55A C87A C105G U139G A147U cannot be ordered by “polymerase ribozyme fitness (log ratio)” value: ≤ -4.2 for the first, ≤ -4.2 for the second.

G46C G50C U56A C57A G86A A98U U139G G141A and G46C G50U U55A G94A C131A cannot be ordered by “polymerase ribozyme fitness (log ratio)” value: ≤ -4.2 for the first, ≤ -4.2 for the second.

First: G46C G58C G83C C125A
Second: G46C G59C C85U G88A A119U
The “polymerase ribozyme fitness (log ratio)” value of the first is higher: -4.17 for the first, ≤ -4.2 for the second.

G46C G68U G80C C87A U104G A113U C118A and G46C G70A C75G A119C cannot be ordered by “polymerase ribozyme fitness (log ratio)” value: ≤ -4.2 for the first, ≤ -4.2 for the second.

G46C G74C C87A and G46C G81A C96G A120G cannot be ordered by “polymerase ribozyme fitness (log ratio)” value: ≤ -4.2 for the first, ≤ -4.2 for the second.

First: G46C G84A G88C C93U C95U C99U
Second: G46C G86A
The “polymerase ribozyme fitness (log ratio)” value of the first is lower: ≤ -4.2 for the first, -1.59 for the second.

G46C G86A G94A C105U and G46C G86A U109A cannot be ordered by “polymerase ribozyme fitness (log ratio)” value: ≤ -4.2 for the first, ≤ -4.2 for the second.

G46C G88U A107G U139A and G46C G92C A142U cannot be ordered by “polymerase ribozyme fitness (log ratio)” value: ≤ -4.2 for the first, ≤ -4.2 for the second.

Going from G46C G136A to G46C U53A G58A G94C C95U G136U G141C, the “polymerase ribozyme fitness (log ratio)” value falls from -0.148 to ≤ -4.2.

G46C U55A A73G G92U G133U G141A and G46C U82G C87A A110U U146G cannot be ordered by “polymerase ribozyme fitness (log ratio)” value: ≤ -4.2 for the first, ≤ -4.2 for the second.

G46C U90A and G46C U101C U102A G128A C149U cannot be ordered by “polymerase ribozyme fitness (log ratio)” value: ≤ -4.2 for the first, ≤ -4.2 for the second.

G46U A47C G58U C108U A119U G128U and G46U A49C A60G A73G C87U A89U C149A cannot be ordered by “polymerase ribozyme fitness (log ratio)” value: ≤ -4.2 for the first, ≤ -4.2 for the second.

G46U A60U G92C U139G and G46U A64U C76A C87A G126U cannot be ordered by “polymerase ribozyme fitness (log ratio)” value: ≤ -4.2 for the first, ≤ -4.2 for the second.

G46U A91C C105U C114U U146G and G46U A97U A106C cannot be ordered by “polymerase ribozyme fitness (log ratio)” value: ≤ -4.2 for the first, ≤ -4.2 for the second.

G46U A107U U135A C149G and G46U C69U C96A A110U A121C cannot be ordered by “polymerase ribozyme fitness (log ratio)” value: ≤ -4.2 for the first, ≤ -4.2 for the second.

Going from G46U C72U C85U U90G C93U A115G A121G to G46U C85A, the “polymerase ribozyme fitness (log ratio)” value rises from ≤ -4.2 to -2.02.

Compared with G46U C99A, G46U C99U is higher in “polymerase ribozyme fitness (log ratio)” value: -3.99 for the first, -1.06 for the second.

G46U G48C C79G C93G U144A and G46U G58C A91U C96U cannot be ordered by “polymerase ribozyme fitness (log ratio)” value: ≤ -4.2 for the first, ≤ -4.2 for the second.

G46U G58C C69A and G46U G58U A89U U102G C118G C129A G152U cannot be ordered by “polymerase ribozyme fitness (log ratio)” value: ≤ -4.2 for the first, ≤ -4.2 for the second.

G46U G62A C76A C87U G88A C118U U134A and G46U G68C G94C cannot be ordered by “polymerase ribozyme fitness (log ratio)” value: ≤ -4.2 for the first, ≤ -4.2 for the second.

First: G46U G71C C95U A97U A115C G136U
Second: G46U G83U A119U C123A U145C
The “polymerase ribozyme fitness (log ratio)” value of the first is lower: ≤ -4.2 for the first, -3.34 for the second.

G46U G84A C103U and G46U G84C C87G A150G cannot be ordered by “polymerase ribozyme fitness (log ratio)” value: ≤ -4.2 for the first, ≤ -4.2 for the second.

G46U G88U and G46U U56G A66C G83U C99G A106G cannot be ordered by “polymerase ribozyme fitness (log ratio)” value: ≤ -4.2 for the first, ≤ -4.2 for the second.

G46U U61A G92U C96A A137G and G46U U77G C87U A89U C93A G124U cannot be ordered by “polymerase ribozyme fitness (log ratio)” value: ≤ -4.2 for the first, ≤ -4.2 for the second.

G46U U77G C93G A106G U130A U146G and G46U U77G C93G U104A cannot be ordered by “polymerase ribozyme fitness (log ratio)” value: ≤ -4.2 for the first, ≤ -4.2 for the second.

Compared with G46U U82C C95U, G46U U82C C99U U101C is lower in “polymerase ribozyme fitness (log ratio)” value: -0.628 for the first, ≤ -4.2 for the second.

G46U U90C A110U A122G G126A and A47C A49C C51U G83C C87U G88U U148A G152U cannot be ordered by “polymerase ribozyme fitness (log ratio)” value: ≤ -4.2 for the first, ≤ -4.2 for the second.

A47C A49G G80C G92U and A47C A49G U78A A98U A120U C131G U144G cannot be ordered by “polymerase ribozyme fitness (log ratio)” value: ≤ -4.2 for the first, ≤ -4.2 for the second.

— the RNAGym collection of RNA variant scans (doi:10.1073/pnas.2313332121)
